In the RNAGym collection of RNA variant scans (doi:10.1093/nar/gkz1192) one finds self-cleavage data, which are given here for 167 variants.

The source gives no read counts; variants with many changes may rest on few reads.

B1: CPEB3 Ribozyme (parent)
chain: UAACAGGGGGCCACAGCAGAAGCGUUCACGUCGCAGCCCCUGUCAGAUUCUGGUGAAUCUGCGAAUUCUGCUGUAUAUCUC

Variants of B1 are the subject of this data set. The data set can be described thus: self-cleavage, relative activity (ratio to wild type); higher = more cleavage; in vitro, sequencing. The gist of the method: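 For each CPEB3 ribozyme variant, relative activity is its cleaved/total read fraction divided by the unmutated ribozyme's. Barcoded error-prone PCR libraries were transcribed by T7 RNA polymerase (5 hours, 37°C) and held in DNase I for 15 min before an EDTA stop, with cleavage occurring throughout. Template-switching reverse transcription and Illumina sequencing were used to read the RNAs. A 5-read minimum applied, and results are the mean of three batches.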
With U1A U72C U74C, the self-cleavage was 1.2.
The same measure for U1C A13G U31C U69C: 0.22; for U1C A28U U41A C50U G52U U72C: 0.06.
Regarding U1C C11U A15G C32A U43A, the self-cleavage stood at 0.06.
U1G C34A A35G U41C U72C: the self-cleavage was determined as 0.76.
U1C G9U C40U U60C U80C: the self-cleavage turned out to be 0.27.
Turning to A2C A5G U25C A28G G52A, the self-cleavage was determined as 0.14.
The same measure for U1A U41C U51C U60C: 0.25; for U1C A2C U54C C59A C71U: 0.12; for U1C A5G C17U A28U A35G C39U U60C: 0.09.
With U1C G22A A64G, the self-cleavage came out at 0.27.
Turning to U1C A35G G52A U72A, the self-cleavage stood at 1.25.
As to U1C A18U A64G C68G G73A, the self-cleavage stood at 0.08.
The same measure for U1C A2U U60C: 0.17; for U1C A13U G46U U54A G63A U76C U80A: 0.13.
In the case of U1C U31A A57G A65G, the self-cleavage was determined as 0.13.
As to U1C A21G A64U U78C, the self-cleavage stood at 0.07.
As to U1C A2U A18G U51A A64U A65G C68A, the self-cleavage is 0.2.
Turning to U1C A2G A20G C23U U43C, the self-cleavage came to 0.41.
Turning to U1G U69A C79U, the self-cleavage amounted to 1.05.
On to A2C A13C U43A G52A A77U U80C, for which the self-cleavage came out at 1.22.
For U1C U26C U43A U51A, the self-cleavage was found to be 0.27.
The same measure for U1A G19C U41C: 0.17; for U1C U69C U78A: 0.54; for U1C U26C U67C G70A U78C: 0.16.
On to U1C A21U U31C U54C A56G C71U, for which the self-cleavage amounted to 0.04.
The same measure for U1C U25C A56G: 0.58; for U1C A64U U66C G70A: 0.2.
With U1C A13G U25C C37U A45U G70C U78C, the self-cleavage came out at 0.05.
Regarding U1A G24A A57G, the self-cleavage was determined as 0.25.
The same measure for U1C A13G A28C A57G G63C U72A: 0.19.
The same measure for U1A G8A A15G U72C: 0.1; for U1C C11G C12G A28G U43C: 0.06; for U1C A13U A20G A35G A47G A57U U78C: 0.2.
U1C U48C A77G: the self-cleavage came out at 0.24.
For U1C A13U A21U A45G U78C, the self-cleavage is 0.07.
The same measure for U1A U49A A64G A75G: 0.18; for U1C C17G A20G U58C: 0.24; for U1C A5C U74C: 1.06.
U1C A2U A21G C40A G42A U78C: the self-cleavage came out at 0.07.
Turning to U1C A13U U31G A35G U43C U78C, the self-cleavage worked out at 0.8.
Consider U1C A15G A18G U25C A28G, for which the self-cleavage stood at 0.63.
On to U1C A45G U54C U60A, for which the self-cleavage stood at 0.47.
Turning to U1C U25G G53A U60C U66C, the self-cleavage stood at 0.19.
The same measure for U1C U51C A56C: 0.53; for U1A U41C A56G A57U U60A: 0.22; for U1C A56C G70A: 0.43.
The same measure for U1C A5G G8U A21G A45G U58A U67C: 0.05.
Consider U1C A18U C37U A45U A64G, for which the self-cleavage worked out at 0.05.
Take U1C A56U A65G U76C: the self-cleavage stood at 0.11.
Take U1A U41A U51A: the self-cleavage was determined as 0.12.
As for U1C A45U U49C U54C, the self-cleavage came to 0.22.
Turning to U1C A18G U49A U72A A77U, the self-cleavage was 0.19.
With U1C A15G U41C A64G G73A, the self-cleavage worked out at 0.92.
For the variant U1G A45U U72C U80C, the self-cleavage stood at 0.7.
As to U1C A2G A18C A21U C44U A56C U80A, the self-cleavage is 0.05.
As for U1C A20G A45C, the self-cleavage worked out at 0.33.
With U1G A18G U25C U78C, the self-cleavage was 0.48.
The same measure for U1C C12U A28G U60A: 0.32; for U1C U26C G33A: 0.17.
As to U1C G7U C14U A20U A45U U69C U80C, the self-cleavage came to 0.04.
As to U1C A15U U26A U69C U72A, the self-cleavage is 0.07.
As to U1C C44G U54A A64G, the self-cleavage turned out to be 0.37.
Consider U1A U31C U69C, for which the self-cleavage is 0.41.
Take U1C G10A A35G U60C: the self-cleavage worked out at 0.07.
On to U1C A21G U54C, for which the self-cleavage turned out to be 0.62.
Consider U1C A28G A64G, for which the self-cleavage was found to be 0.37.
U1C A5C G7U U78C: the self-cleavage worked out at 0.32.
Regarding U1C A15U G42U U43A A45G U72C, the self-cleavage was 0.05.
The same measure for U1C G9A U41A A45C: 0.05.
The same measure for U1C A20U U41A U43A U60C: 0.07; for U1A G24A U25C A57U: 0.18.
Consider U1A U26C U41A U49C, for which the self-cleavage was 0.07.
As for U1C A5G G9A U43C U48C U54C U69A, the self-cleavage turned out to be 0.05.
For U1C A15U G24U U66G, the self-cleavage worked out at 0.17.
Consider U1C G6U G30C U41C U51C, for which the self-cleavage is 0.05.
Take U1A G9U U26G A35G U41C A45G: the self-cleavage amounted to 0.25.
The same measure for U1A U25C U69C: 0.26.
Consider U1G A18G A21U U48G C62U A77G U78C, for which the self-cleavage was 0.02.
Consider U1A G42A U72A, for which the self-cleavage was determined as 0.11.
For U1C A5G A35G C40U A45G U54A, the self-cleavage was 0.32.
Regarding U1C A18G A45U A56C U67C, the self-cleavage was 0.21.
U1C A2G U25C U51A A56G A64G: the self-cleavage amounted to 0.28.
The same measure for U1C G33A G42A A57G A77G: 0.28; for U1C A2U A13U U26C A28U U67C: 0.06; for A2C A15U C38U U78C: 0.34.
With U1C C11G C12G A18G, the self-cleavage was 0.42.
For U1C A5G A21C, the self-cleavage was found to be 0.13.
The same measure for U1C G33U U43C U69A: 0.07; for U1C A2U A18C C37A U60C: 0.05; for U1C A18G A56G U78C: 0.33.
As to U1C C14U U43G U67C, the self-cleavage worked out at 0.17.
As for U1C C14G A15U C23U, the self-cleavage came out at 0.06.
Regarding U1C C4U A28C A45U, the self-cleavage was determined as 0.18.
U1C A15U U58A C59U: the self-cleavage is 0.2.
The same measure for U1C A15U U58C: 0.24; for U1C G36U U60G A64G: 0.16.
The same measure for A2C C11A U69C: 0.3.
U1C A2U U74C: the self-cleavage was found to be 0.59.
The same measure for U1C A18G U43C: 0.51.
As to U1C A15G G42U, the self-cleavage worked out at 0.17.
Take U1C A3G G9U U26C U43C: the self-cleavage turned out to be 0.01.
Take U1C G42A A45U U60C: the self-cleavage was 0.09.
As to U1A U67G U69C U80A, the self-cleavage stood at 0.32.
The same measure for U1C U26C U41C U49C A57G U76A U80C: 0.08; for U1C A13G U48C U60C C79U: 0.36.
Turning to U1G A13U A21U, the self-cleavage stood at 0.41.
Regarding U1C G6U A13U C44U A56U U76A U78C, the self-cleavage turned out to be 0.04.
For U1C U31C U51C U78A, the self-cleavage came out at 0.24.
Take U1C A15U A35U U72C: the self-cleavage was found to be 0.53.
As to U1C C11U U25C A64U U76C A77U, the self-cleavage was 0.19.
The same measure for U1C A3G U58C U78C U80C: 0.17; for U1C C11A U25A U66C U78A: 0.24; for U1C A15U U26C A45G U51C U58C: 0.49.
The same measure for U1C U25C U51A G63A A64C: 0.16; for U1C A3G A20G U31C U54C C62U U67C: 0.09.
The same measure for U1C A15U U43C A65U U69C U72C: 0.15; for U1C U25A U74A U76A: 0.13.
For U1C A13U A15G U26C, the self-cleavage came out at 0.6.
The same measure for U1C A13G U41C U80C: 0.97.
For the variant U1C G9C U51A U78A, the self-cleavage came to 0.41.
As for U1A U69C U72C, the self-cleavage was 0.36.
For U1C U54C U67C U80C, the self-cleavage was found to be 0.18.
In the case of U1C A15C U26G U60C, the self-cleavage is 0.44.
Consider U1C A18G U60A U74C, for which the self-cleavage was found to be 0.26.
U1A U66C U74C: the self-cleavage is 0.71.
Take U1C A2G A5G U25C A45U U69G: the self-cleavage was determined as 0.42.
The same measure for U1G C11G A21G U25A C38A U74A: 0.03; for U1C U43C A64U U76C: 0.2; for U1C A5U U60C: 0.67.
For the variant U1A U26C U58C U80C, the self-cleavage is 0.33.
For U1C U51A U58C G61C U78C, the self-cleavage turned out to be 0.28.
The same measure for A2C C11U G30A U54C A65G U78C: 0.05.
As for A2C A21C U25G U54A G63U, the self-cleavage turned out to be 0.45.
For U1C A18C A21G U78C, the self-cleavage is 0.05.
For the variant U1A U48C U51C A57G U67C, the self-cleavage was 0.17.
The same measure for U1G G9U A28G: 0.07.
In the case of U1C A2C C12G, the self-cleavage was 0.47.
The same measure for U1C A18G G33A A35G C68U U72C: 0.19.
U1C A18G A20G C40U U51A U66C U80C: the self-cleavage stood at 0.25.
The same measure for U1C U31A C39U A45U A64U: 0.04; for U1C A45G A56G A64G: 0.28; for U1C A2G G6A C14A C34G U51C: 0.05.
Consider U1G A3G A20G C40U A57G, for which the self-cleavage was found to be 0.49.
On to U1C U41C A56G, for which the self-cleavage was found to be 0.76.
The same measure for U1C C12U U48A G61C U66A: 0.16; for U1C A15G A20G U72A: 0.09; for U1C G10C U25C A28G: 0.07.
As to U1C A28G U60A, the self-cleavage is 0.12.
Consider U1C U60A U69C, for which the self-cleavage turned out to be 0.18.
For U1C G33U C38U U49A U54C U74C, the self-cleavage was 0.06.
For the variant U1A U43A U48C U51C C68U U78C, the self-cleavage was determined as 0.34.
On to U1C A5U G7C G19A U25A U49A A77G, for which the self-cleavage is 0.04.
For the variant U1A C39A U48C, the self-cleavage came to 0.1.
Consider U1C G9U A64U A65U, for which the self-cleavage was 0.12.
For the variant U1C A28G U31A, the self-cleavage was found to be 0.2.
For the variant U1C U26C U48C, the self-cleavage amounted to 0.29.
As to U1C A13G A15G A21G U31C U54C, the self-cleavage worked out at 0.36.
With U1C G46U A65G, the self-cleavage was 0.12.
The same measure for U1A U58C U72C U76A: 0.44.
On to U1C A5C A64G U80C, for which the self-cleavage was determined as 1.04.
With U1C G7U C23G U51A U72A, the self-cleavage is 0.1.
Regarding U1G G8U A20G A35U, the self-cleavage stood at 0.23.
As to U1C A20G G52A, the self-cleavage is 0.91.
The same measure for U1C A13G A35G U58C: 0.48.
With U1C C32U C62A, the self-cleavage amounted to 0.52.
The same measure for U1C A64U U66C U80A: 0.15.
